Reference: publication PMC4336329 (PLoS ONE, 2015)
Out of some 310,000 compounds screened, about 2,200 (0.71%) showed an effect of 50% or more. Effects have a minus sign here. The list shows a part of the results.

These compounds were tested against human ether-à-go-go-related gene (hERG) potassium channel (human, UniProt Q12809) (assay: primary screen, population patch clamp on CHO cells stably expressing hERG).
Sequence of human ether-à-go-go-related gene (hERG) potassium channel (Q12809 whole entry, looked up): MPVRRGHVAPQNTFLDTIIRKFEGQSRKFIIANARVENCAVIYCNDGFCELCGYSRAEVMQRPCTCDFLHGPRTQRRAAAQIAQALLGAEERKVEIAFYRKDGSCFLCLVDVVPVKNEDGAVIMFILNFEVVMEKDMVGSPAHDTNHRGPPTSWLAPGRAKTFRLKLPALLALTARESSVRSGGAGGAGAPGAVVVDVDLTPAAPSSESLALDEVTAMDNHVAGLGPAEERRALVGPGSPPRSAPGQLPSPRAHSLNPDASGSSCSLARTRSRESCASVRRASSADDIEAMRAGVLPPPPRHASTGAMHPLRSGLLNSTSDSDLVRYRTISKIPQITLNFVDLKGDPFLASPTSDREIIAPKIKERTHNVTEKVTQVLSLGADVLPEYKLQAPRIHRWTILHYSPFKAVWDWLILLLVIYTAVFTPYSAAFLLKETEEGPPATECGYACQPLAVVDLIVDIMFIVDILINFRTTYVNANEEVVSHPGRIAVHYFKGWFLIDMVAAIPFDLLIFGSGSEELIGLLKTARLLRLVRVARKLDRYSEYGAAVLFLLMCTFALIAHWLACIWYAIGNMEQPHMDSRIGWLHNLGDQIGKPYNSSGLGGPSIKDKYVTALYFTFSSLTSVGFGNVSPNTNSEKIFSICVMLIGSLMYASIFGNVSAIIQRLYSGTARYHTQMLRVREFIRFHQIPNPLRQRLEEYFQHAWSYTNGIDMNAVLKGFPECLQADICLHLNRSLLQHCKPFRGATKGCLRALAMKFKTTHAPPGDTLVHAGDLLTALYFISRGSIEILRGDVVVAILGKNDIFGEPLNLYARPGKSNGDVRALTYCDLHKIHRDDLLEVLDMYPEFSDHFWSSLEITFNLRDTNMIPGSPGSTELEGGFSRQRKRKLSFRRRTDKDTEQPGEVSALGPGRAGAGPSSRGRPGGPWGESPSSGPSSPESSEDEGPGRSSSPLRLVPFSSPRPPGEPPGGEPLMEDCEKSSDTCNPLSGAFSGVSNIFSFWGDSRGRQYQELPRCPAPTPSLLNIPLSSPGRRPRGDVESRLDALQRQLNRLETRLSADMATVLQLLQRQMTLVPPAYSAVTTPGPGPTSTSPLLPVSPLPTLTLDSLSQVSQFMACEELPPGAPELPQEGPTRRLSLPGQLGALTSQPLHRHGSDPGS

Compound	hERG current change (%, negative = inhibition) at 1uM [%]
CC1(C)CC(=O)c2cnc(NCC3CCCO3)nc2C1 (stereo not drawn)	11.7
COc1cccc(OC)c1C(=O)Nc1ccc2c(c1)CCCN2S(=O)(=O)c1ccc(C)cc1	9.28
Cc1nn(C)c(C)c1S(=O)(=O)N1CCCC(C(=O)N2CCN(c3ccccc3)CC2)C1 (stereo not drawn)	5.62
CCc1cc2c(SCC(=O)c3ccc(C)cc3)ncnc2s1	14.8
O=C(NCc1ccccc1)C1CCC(CNc2c(N3CCCCC3)c(=O)c2=O)CC1 (stereo not drawn)	19.8
Cc1ccc2oc(C(=O)N3CCC(O)(c4ccccc4)CC3)c(C)c2c1	9.53
CC(C)CC(=O)OC1C(N2CCOCC2)c2c(ccc(/C=C/C(=O)N3CCOCC3)c2O)OC1(C)C (stereo not drawn)	-3.49
CCOc1ccc(CNS(=O)(=O)c2ccc(-c3ccc(=O)[nH]n3)o2)cc1OC	15.1
O=C(N/N=C/c1cn(-c2cccs2)nc1-c1ccccc1)c1ccc(O)cc1	15.2
Cc1c(C(=O)NCCSCc2ccc(F)cc2)cnn1-c1ccc(Cl)cc1	-8.88
COc1cccc(/C=C/C(=O)c2cccc([N+](=O)[O-])c2)c1OC	-0.655
COc1ccc(NS(=O)(=O)c2ccc(Br)s2)cc1OC	9.55
CN(C)NC(=S)Nc1cccc(Cl)c1	11.8
O=c1[nH]cnc2scc(-c3cccs3)c12	8.1
COc1cc(/C=C/C(=O)NC(C)C)ccc1OCc1ccccc1	12.2
CC1=NC(C)(C)Cc2c(C)cccc21.Cl	10.3
COc1ccc(CCNC(=O)COc2ccc(S(=O)(=O)NC(C)C)cc2Cl)cc1OC	5.95
Cn1c(=O)[nH]c(=O)c2c1nc(SCC(=O)[O-])n2CCOc1ccccc1.[Na+]	15.7
CCN(CC)S(=O)(=O)c1cccc(NC(=O)COC(=O)CCc2nc3ccccc3s2)c1	14.5
CCOC(=O)/C(C#N)=N/Nc1c(S(=O)(=O)Cc2ccco2)csc1C(=O)OC	12
COc1ccc(Cl)cc1NC(=O)CSc1nncn1-c1cccnc1	6.23
COc1ccc(-n2nc(C(=O)NCC(=O)NCC3CCCO3)c3ccccc3c2=O)cc1 (stereo not drawn)	10.5
CC1CCCN(C(=O)CCS(=O)(=O)Cc2ccccc2)C1 (stereo not drawn)	9.84
Cc1c(NC(=O)Cc2ccccc2)cccc1C(=O)NN1C(=O)c2ccccc2C1=O	-1.4
